Source: PubChem BioAssay AID1476 (National Center for Advancing Translational Sciences (NCATS), 2009)
Among all 200,000 compounds or so, about 4,500 (2.2%) were called active. This list was built around the results that the source calls inconclusive (neither active nor inactive); the mix of calls is not that of the screen. The call rests on the fitted dose curve; in most records, active means well fitted inhibition curve with a large enough effect; inconclusive means small, poorly fitted or top-dose-only effect, or effect the other way; inactive means flat fitted curve, though single readings scatter. Potencies beside an inconclusive call are fits to weak or partial responses and may not hold up.

Target: Cruzipain (Trypanosoma cruzi) (UniProt P25779)
Experiment: qHTS Assay for Promiscuous and Specific Inhibitors of Cruzain (without detergent); further: nearly all actives have a fitted effect of over 40% in size;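 on max response, negative = inhibition: plate controls were enzyme without inhibitor for no effect and buffer without enzyme for full effect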
Conditions: purified cruzain, Z-FR-AMC fluorescence, no detergent
Outline: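 Detergent-free condition (0.00005% Triton X-100) in acetate buffer pH 5.5 with DTT. 1.5 nM enzyme and compound were pre-mixed 15 min, then 2 uM Z-FR-AMC substrate added; reaction progress from fluorescence change between first and third reads (60 s).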
Potency means the concentration at half of the fitted maximal effect; tags describe the fitted curve by direction and shape.

Chain of UniProt P25779 (P25779 whole entry, looked up): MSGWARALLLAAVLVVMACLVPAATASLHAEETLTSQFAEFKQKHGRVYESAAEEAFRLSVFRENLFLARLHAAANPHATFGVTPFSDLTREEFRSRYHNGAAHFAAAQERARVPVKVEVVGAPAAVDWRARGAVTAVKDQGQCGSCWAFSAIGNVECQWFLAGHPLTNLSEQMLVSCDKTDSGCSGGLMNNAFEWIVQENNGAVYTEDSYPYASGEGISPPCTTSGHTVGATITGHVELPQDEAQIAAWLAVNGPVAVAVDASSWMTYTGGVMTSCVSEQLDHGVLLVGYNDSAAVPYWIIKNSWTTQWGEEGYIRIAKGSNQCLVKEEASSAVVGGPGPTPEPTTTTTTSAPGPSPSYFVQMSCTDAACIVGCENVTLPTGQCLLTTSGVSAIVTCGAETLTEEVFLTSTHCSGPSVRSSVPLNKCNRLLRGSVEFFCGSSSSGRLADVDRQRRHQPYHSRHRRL

**Q.** `Cc1ccc(N=C2S/C(=C\c3cn(CC(=O)O)c4ccccc34)C(=O)N2C)cc1` was tested. Which Potency did it give?
**A.** inconclusive: 12.6 µM [activator, partial curve]

**Q.** With `Cc1cccc(-c2nc3ccccc3n3c(-c4ccccc4)c4c(=O)n(C)c(=O)n(C)c4c23)c1` as the molecule, how does the max response, negative = inhibition read?
**A.** inactive: -6.45%

**Q.** Which max response, negative = inhibition does the source give for `CN(C(=O)CSc1nnc(-c2ccc([N+](=O)[O-])cc2)o1)c1ccccc1` here?
**A.** inactive: 5.37%

**Q.** For `COc1ccc2[nH]c3nc(SC(C)C)nnc3c2c1`, which Potency is on record?
**A.** inconclusive: 39.8 µM [inhibitor, single point]

**Q.** For `CCOC(=O)C1=C(N)n2c(s/c(=C/c3ccco3)c2=O)=C(C(=O)OC)C1c1ccco1` (stereo not given), which Potency is on record?
**A.** active: 12.6 µM

**Q.** How did the max response, negative = inhibition turn out when `COc1cccc(CNC(=O)Cn2c(C)c3cnn(-c4ccccc4)c(=O)c3c2C)c1` was run?
**A.** inactive: 2.75%

**Q.** `O=P1(O)Oc2c(c(-c3ccccc3)cc3ccc4ccccc4c23)-c2c(-c3ccccc3)cc3ccc4ccccc4c3c2O1` was tested. Which max response, negative = inhibition did it give?
**A.** inactive: -3.78%

**Q.** `O=C(Nc1ccc(SC(F)F)cc1)c1ccc2nccnc2c1` was tested. Which Potency did it give?
**A.** inconclusive: 12.6 µM [inhibitor, partial curve]

**Q.** Which Potency does the source give for `CSc1nnc(C)c(/C=C/Nc2ccc(C)cc2)n1` here?
**A.** inconclusive: 39.8 µM [activator, single point]

**Q.** For `O=C(c1ccc(Cl)cc1)c1oc2ccccc2c1CS(=O)(=O)c1ccccc1`, which Potency is on record?
**A.** inconclusive: 39.8 µM [inhibitor, single point]

**Q.** With `COc1ccc(N(CC(=O)Nc2nc3ccc(C)cc3s2)S(=O)(=O)c2c(C)nn(C)c2C)cc1` as the molecule, how does the Potency read?
**A.** inconclusive: 31.6 µM [activator, single point]

**Q.** With `CCOc1ccc(NC(=O)c2c(NC(=O)c3cccs3)sc3c2CCC(C(C)(C)C)C3)cc1` (stereo not given) as the molecule, how does the Potency read?
**A.** inconclusive: 39.8 µM [inhibitor, single point]

**Q.** How did the Potency turn out when `CCn1c(=O)cc(SCC(=O)N2CCN(c3ccccc3F)CC2)c2ccccc21` was run?
**A.** inconclusive: 39.8 µM [activator, single point]

**Q.** How did the Potency turn out when `Cc1onc(-c2ccccc2Cl)c1C(=O)N1CCN(c2cccc(Cl)c2)CC1` was run?
**A.** inconclusive: 25.1 µM [activator, single point]

**Q.** For `Cc1cccc(Cn2nnc3c(=O)[nH]c(C4CCN(C(=O)c5ccc(F)cc5)CC4)nc32)c1`, which Potency is on record?
**A.** inconclusive: 39.8 µM [activator, single point]

**Q.** `CC(=O)N1CCN(c2ccc(NC(=O)c3ccc(N4CCCC4)c([N+](=O)[O-])c3)cc2Cl)CC1` was tested. Which max response, negative = inhibition did it give?
**A.** inactive: 12.6%

**Q.** With `Cc1ccc2c(c1)N(C(=O)Nc1cccc3c1CCCC3)CC(C)O2` (stereo not given) as the molecule, how does the max response, negative = inhibition read?
**A.** inactive: 5.42%

**Q.** With `Cc1ccc(-c2csc3nc(SCC(N)=O)n(Cc4ccccc4)c(=O)c23)cc1` as the molecule, how does the max response, negative = inhibition read?
**A.** inactive: 7.09%

**Q.** Which Potency does the source give for `Cc1ccc2oc(-c3cc(NC(=O)/C=C/c4ccco4)ccc3Cl)nc2c1` here?
**A.** inconclusive: 39.8 µM [inhibitor, single point]

**Q.** Which Potency does the source give for `CC(C)(C)c1ccc(C(=O)NCc2ccc(Cl)cc2)cc1` here?
**A.** inconclusive: 25.1 µM [inhibitor, single point]

**Q.** How did the Potency turn out when `COc1ccc(-c2cc3nnc(-c4ccccc4)nc3s2)cc1` was run?
**A.** active: 3.16 µM

**Q.** Which Potency does the source give for `CN(C(=O)c1cc2nc(-c3ccco3)cc(C(F)(F)F)n2n1)C1CCCCC1` here?
**A.** inconclusive: 31.6 µM [activator, single point]

**Q.** `CN(C1CCCCC1)S(=O)(=O)c1ccc2c(c1)c(=O)c(C(=O)NCc1ccc(Cl)cc1)cn2C` was tested. Which max response, negative = inhibition did it give?
**A.** inactive: 1.23%

**Q.** `O=C(CN1C(=O)CC(c2ccc(F)cc2)=Nc2ccccc21)NCc1ccccc1Cl` was tested. Which max response, negative = inhibition did it give?
**A.** inactive: -11.6%

**Q.** How did the max response, negative = inhibition turn out when `Cc1ccc(C)c(Nc2nn3c(=O)c4ccc(C(=O)NCc5cccs5)cc4nc3s2)c1` was run?
**A.** inactive: -7.06%

**Q.** `CCSc1nc2c(c(=O)[nH]1)C(c1cccs1)C(C(=O)OC)=C(C)N2` (stereo not given) was tested. Which Potency did it give?
**A.** inconclusive: 39.8 µM [inhibitor, single point]

**Q.** For `CCOC(=O)Cn1nnnc1C(CC)N(Cc1ccccc1)Cc1cc2cc(C)ccc2[nH]c1=O` (stereo not given), which Potency is on record?
**A.** inconclusive: 31.6 µM [activator, single point]

**Q.** Which max response, negative = inhibition does the source give for `Cc1ccc(-n2c(=O)c3ccccc3n(CC(=O)Nc3cccc(C(F)(F)F)c3)c2=O)cc1` here?
**A.** inactive: -4.2%

**Q.** For `O=C(Nc1ccc2nc(SCC(=O)N3CCOCC3)sc2c1)c1ccc(Cl)cc1`, which Potency is on record?
**A.** inconclusive: 39.8 µM [activator, single point]

**Q.** Which Potency does the source give for `COc1ccc(N2CCN(Cc3nc4c(c(=O)n(C)c(=O)n4C)n3Cc3cccc(C)c3)CC2)cc1` here?
**A.** inconclusive: 25.1 µM [activator, partial curve]

**Q.** How did the Potency turn out when `O=S(=O)(Nc1ccc(-c2nnc(SCc3ccc(Cl)cc3)o2)cc1)c1ccccc1` was run?
**A.** inconclusive: 31.6 µM [inhibitor, single point]

**Q.** For `O=C(CSc1nc2ccccc2s1)N1c2ccccc2Sc2ccccc21`, which Potency is on record?
**A.** active: 15.8 µM

**Q.** `O=C(N/N=C\c1ccc(OC(=O)c2cccs2)cc1)c1ccc(Cl)cc1` was tested. Which Potency did it give?
**A.** active: 10 µM

**Q.** With `O=C(/C=C/c1ccc(O)c(O)c1)O[C@@H](C(=O)O)[C@@H](OC(=O)/C=C/c1ccc(O)c(O)c1)C(=O)O` as the molecule, how does the max response, negative = inhibition read?
**A.** inactive: -8.54%

**Q.** Which Potency does the source give for `CC1CCCCN1CCCNC(=O)Cn1ncc2c3ccccc3n(Cc3ccccc3F)c2c1=O` (stereo not given) here?
**A.** inconclusive: 1.58 µM [inhibitor, single point]

**Q.** `COc1cc(Cl)c(NS(=O)(=O)c2ccc(-c3coc(C)n3)cc2)c(OC)c1` was tested. Which max response, negative = inhibition did it give?
**A.** inactive: 7.76%

**Q.** For `COc1nc(Oc2ccc(C(=O)O)cc2)nc(Oc2ccc(C(=O)O)cc2)n1`, which max response, negative = inhibition is on record?
**A.** inactive: -6.87%

**Q.** How did the Potency turn out when `Cc1ccc2cc(C(c3nnnn3C3CCCC3)N(Cc3ccco3)Cc3cccs3)c(=O)[nH]c2c1` (stereo not given) was run?
**A.** inconclusive: 31.6 µM [inhibitor, single point]

**Q.** `Cc1nc2cnc(N3CCNCC3)nc2n(C2CC2)c1=O` was tested. Which max response, negative = inhibition did it give?
**A.** inactive: -8.88%

**Q.** `O=C(CSc1nnc(SCc2cccc3ccccc23)s1)N/N=C/C=C/c1ccccc1[N+](=O)[O-]` was tested. Which Potency did it give?
**A.** active: 10 µM

**Q.** `Cc1cc(C(=O)CN2C(=O)NC(c3ccccc3)(c3ccccc3)C2=O)c(C)n1Cc1ccccc1` was tested. Which Potency did it give?
**A.** active: 10 µM

**Q.** For `COc1cccc(NC(=O)Cn2c(=O)n(Cc3ccco3)c(=O)c3cc(OC)c(OC)cc32)c1`, which Potency is on record?
**A.** inconclusive: 25.1 µM [activator, single point]

**Q.** With `CCOC(=O)c1cc(-c2cc3ccccc3o2)nc2c1c(=O)[nH]c(=O)n2CCOC` as the molecule, how does the Potency read?
**A.** inconclusive: 7.94 µM [activator, full curve]

**Q.** With `COc1ccc2cnn(CCOc3cc(C)ccc3C(C)C)c(=O)c2c1OC` as the molecule, how does the Potency read?
**A.** inconclusive: 39.8 µM [activator, single point]

**Q.** With `CC(=O)C1=C(O)C(=O)N(c2cc(C(C)(C)C)on2)C1c1ccc(Br)cc1` (stereo not given) as the molecule, how does the Potency read?
**A.** inconclusive: 25.1 µM [activator, single point]

**Q.** With `O=C(N/N=C/C1C(c2ccccc2)C1(Cl)Cl)c1cccc(Br)c1` (stereo not given) as the molecule, how does the Potency read?
**A.** inconclusive: 39.8 µM [inhibitor, single point]

**Q.** Which Potency does the source give for `C=CCn1c(SC(C)C(=O)NCc2ccc3c(c2)OCO3)nc2scc(-c3ccccc3)c2c1=O` (stereo not given) here?
**A.** inconclusive: 31.6 µM [inhibitor, single point]

**Q.** How did the Potency turn out when `CCn1ccc2cc(S(=O)(=O)N3CCC(C(=O)NCc4ccc(F)cc4)CC3)ccc21` was run?
**A.** inconclusive: 39.8 µM [inhibitor, single point]

**Q.** `Cc1ccc(NC(=O)CSc2nnc(COc3ccc(Cl)cc3)o2)c(C)c1` was tested. Which max response, negative = inhibition did it give?
**A.** inactive: -10%

**Q.** Which Potency does the source give for `CCc1c(C)sc(NC(=O)c2cc(-c3ccc(O)cc3)on2)c1C#N` here?
**A.** active: 7.94 µM

**Q.** Which Potency does the source give for `Cc1ccc2nc(N3CCN(S(=O)(=O)c4ccc5c(c4)OCCO5)CC3)c(C#N)cc2c1` here?
**A.** inconclusive: 31.6 µM [inhibitor, single point]

**Q.** With `CCCn1c(-c2cccs2)nc2nc3ccccc3nc21` as the molecule, how does the Potency read?
**A.** inconclusive: 6.31 µM [activator, single point]

**Q.** With `Cc1ccc(S(=O)(=O)N2CCCCC2)cc1NC(=O)C1CC(=O)N(Cc2ccccc2)C1` (stereo not given) as the molecule, how does the Potency read?
**A.** inconclusive: 39.8 µM [activator, single point]

**Q.** With `CCOC(=O)c1cc(-c2ccccc2)n(CCC(=O)NCCc2ccc(OC)c(OC)c2)c1C` as the molecule, how does the Potency read?
**A.** inconclusive: 31.6 µM [activator, partial curve]

**Q.** With `O=C(Nc1nnc(SCc2ccccc2Cl)s1)C1COc2ccccc2O1` (stereo not given) as the molecule, how does the Potency read?
**A.** inconclusive: 31.6 µM [inhibitor, single point]

**Q.** With `Cc1cccc2cc(C(c3nnnn3CC3CCCO3)N3CCCC4(CCCCC4)C3)c(=O)[nH]c12` (stereo not given) as the molecule, how does the Potency read?
**A.** inconclusive: 31.6 µM [activator, single point]

**Q.** `N#Cc1nc(/C=C/c2ccc(F)cc2)oc1NC1CCCCC1` was tested. Which max response, negative = inhibition did it give?
**A.** inactive: -7.33%

**Q.** With `CCOc1ccc(CCNC(=O)CN2CCN(Cc3ccc(F)cc3)C2=O)cc1OCC` as the molecule, how does the Potency read?
**A.** inconclusive: 39.8 µM [activator, single point]

**Q.** With `COc1ccc(C(=O)NCC(c2ccco2)S(=O)(=O)c2cccs2)cc1` (stereo not given) as the molecule, how does the Potency read?
**A.** inconclusive: 0.631 µM [activator, full curve, poor fit]

**Q.** For `COc1ccc(N(CC(=O)NCc2ccc3c(c2)OCO3)S(=O)(=O)c2c(C)nn(C)c2C)cc1`, which Potency is on record?
**A.** inconclusive: 39.8 µM [activator, single point]

**Q.** For `O=C(O)CCc1ccc(-c2ccc(Br)cc2)n1Cc1ccco1`, which Potency is on record?
**A.** inconclusive: 39.8 µM [activator, single point]

**Q.** How did the max response, negative = inhibition turn out when `COc1ccc(-c2cccc(NS(=O)(=O)c3cc(C)ccc3OC)c2)nn1` was run?
**A.** inactive: 10.2%

**Q.** For `Cc1cc(-c2nc3ncccc3o2)ccc1NC(=O)c1ccc(Cl)cc1`, which max response, negative = inhibition is on record?
**A.** inactive: -4.16%

**Q.** With `C=CCn1c(C)cc(C(=O)COC(=O)CNC(=O)c2ccccc2)c1C` as the molecule, how does the Potency read?
**A.** active: 20 µM

**Q.** With `CCCCN(C)S(=O)(=O)c1cc(-c2cc(C)no2)ccc1C` as the molecule, how does the max response, negative = inhibition read?
**A.** inactive: 18.6%
